The values below come from publication PMC7801473 (2021).

By UniProt entry, the sequences of proteins in these tests, tags left out. Where a name states a change or a piece, a line headed by the entry shows the natural chain unless it says otherwise. Chains listed by the source or under a name are the forms on record and can include a tag or linker. Residues count along the entry.
UniProt Q9ULZ3: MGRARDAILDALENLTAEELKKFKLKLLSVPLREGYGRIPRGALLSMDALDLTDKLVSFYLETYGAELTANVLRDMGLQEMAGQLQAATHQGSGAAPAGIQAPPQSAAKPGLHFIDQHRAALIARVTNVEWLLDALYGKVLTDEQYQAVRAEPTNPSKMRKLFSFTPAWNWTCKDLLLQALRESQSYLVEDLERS
ASC^CARD (M2H fusion): residues 107-195 of Q9ULZ3
ASC^CARD N128A/E130R (Y2H construct) (Q9ULZ3, form named): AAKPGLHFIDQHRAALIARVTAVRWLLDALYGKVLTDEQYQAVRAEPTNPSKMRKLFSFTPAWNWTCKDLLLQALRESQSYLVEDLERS
ASC^CARD D143A/E144A (Y2H construct) (Q9ULZ3, form named): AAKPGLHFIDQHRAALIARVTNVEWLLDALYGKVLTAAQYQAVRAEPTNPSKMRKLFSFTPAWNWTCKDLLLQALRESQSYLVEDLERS
UniProt P55211, residues 1-92: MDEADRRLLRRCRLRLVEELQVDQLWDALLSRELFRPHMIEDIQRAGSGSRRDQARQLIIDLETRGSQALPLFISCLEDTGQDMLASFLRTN

Experiment [1] deals with wild-type full-length ASC (M2H fusion) (human) (UniProt Q9ULZ3). In words: two-hybrid; mammalian two-hybrid (Checkmate, Promega), pACT (VP16 AD) and pBIND (GAL4 BD) with pG5luc in HEK293T cells, firefly luciferase normalised to Renilla, 48 h.
In experiment [2] the target is ASC^CARD (M2H fusion) (human) (UniProt Q9ULZ3). The experiment is described as above.
In experiment [3] the target is ASC^CARD N128A/E130R (Y2H construct) (human) (UniProt Q9ULZ3). Kind of experiment: two-hybrid; yeast two-hybrid (GAL4 Matchmaker), pGBK-T7 and pGAD-T7 in S. cerevisiae AH109, growth on -His/-Leu/-Trp plates, 30 °C.
In experiment [4] the target is ASC^CARD D143A/E144A (Y2H construct) (human) (UniProt Q9ULZ3). The description is as above.
The target of experiment [5] is human-derived CASP9^CARD (human) (UniProt P55211). The description is as above.

These are yes or no findings as the source states them, for the method shown. Some entries that bind do so weakly or less than the wild type. Tags and fused reporters may be left off the sequences shown.

B1: wild-type full-length NLRP1 (M2H fusion) (protein, UniProt Q9C000-1 1-1473)
chain: MAGGAWGRLACYLEFLKKEELKEFQLLLANKAHSRSSSGETPAQPEKTSGMEVASYLVAQYGEQRAWDLALHTWEQMGLRSLCAQAQEGAGHSPSFPYSPSEPHLGSPSQPTSTAVLMPWIHELPAGCTQGSERRVLRQLPDTSGRRWREISASLLYQALPSSPDHESPSQESPNAPTSTAVLGSWGSPPQPSLAPREQEAPGTQWPLDETSGIYYTEIREREREKSEKGRPPWAAVVGTPPQAHTSLQPHHHPWEPSVRESLCSTWPWKNEDFNQKFTQLLLLQRPHPRSQDPLVKRSWPDYVEENRGHLIEIRDLFGPGLDTQEPRIVILQGAAGIGKSTLARQVKEAWGRGQLYGDRFQHVFYFSCRELAQSKVVSLAELIGKDGTATPAPIRQILSRPERLLFILDGVDEPGWVLQEPSSELCLHWSQPQPADALLGSLLGKTILPEASFLITARTTALQNLIPSLEQARWVEVLGFSESSRKEYFYRYFTDERQAIRAFRLVKSNKELWALCLVPWVSWLACTCLMQQMKRKEKLTLTSKTTTTLCLHYLAQALQAQPLGPQLRDLCSLAAEGIWQKKTLFSPDDLRKHGLDGAIISTFLKMGILQEHPIPLSYSFIHLCFQEFFAAMSYVLEDEKGRGKHSNCIIDLEKTLEAYGIHGLFGASTTRFLLGLLSDEGEREMENIFHCRLSQGRNLMQWVPSLQLLLQPHSLESLHCLYETRNKTFLTQVMAHFEEMGMCVETDMELLVCTFCIKFSRHVKKLQLIEGRQHRSTWSPTMVVLFRWVPVTDAYWQILFSVLKVTRNLKELDLSGNSLSHSAVKSLCKTLRRPRCLLETLRLAGCGLTAEDCKDLAFGLRANQTLTELDLSFNVLTDAGAKHLCQRLRQPSCKLQRLQLVSCGLTSDCCQDLASVLSASPSLKELDLQQNNLDDVGVRLLCEGLRHPACKLIRLGLDQTTLSDEMRQELRALEQEKPQLLIFSRRKPSVMTPTEGLDTGEMSNSTSSLKRQRLGSERAASHVAQANLKLLDVSKIFPIAEIAEESSPEVVPVELLCVPSPASQGDLHTKPLGTDDDFWGPTGPVATEVVDKEKNLYRVHFPVAGSYRWPNTGLCFVMREAVTVEIEFCVWDQFLGEINPQHSWMVAGPLLDIKAEPGAVEAVHLPHFVALQGGHVDTSLFQMAHFKEEGMLLEKPARVELHHIVLENPSFSPLGVLLKMIHNALRFIPVTSVVLLYHRVHPEEVTFHLYLIPSDCSIRKAIDDLEMKFQFVRIHKPPPLTPLYMGCRYTVSGSGSGMLEILPKELELCYRSPGEDQLFSEFYVGHLGSGIRLQVKDKKDETLVWEALVKPGDLMPATTLIPPARIAVPSPLDAPQLLHFVDQYREQLIARVTSVEVVLDKLHGQVLSQEQYERVLAENTRPSQMRKLFSLSQSWDRKCKDGLYQALKETHPHLIMELWEKGSKKGLLPLSS
Turning to B1, the binding result in experiment [1] is on record as “binds”.

B2: NLRP1^CARD (M2H fusion) (domain or fragment, UniProt Q9C000-1 1374-1463)
chain: DAPQLLHFVDQYREQLIARVTSVEVVLDKLHGQVLSQEQYERVLAENTRPSQMRKLFSLSQSWDRKCKDGLYQALKETHPHLIMELWEKG
Take B2: the binding result in experiment [2] was “binds”.

B3: GAL4 activation domain (AD)-NLRP1^CARD fusion (domain or fragment, UniProt Q9C000-1 1374-1463)
chain: B2 chain
Consider B3, for which the binding entry in experiment [3], in experiment [4] and in experiment [5] was “no binding” each time.
